Assay results from publication PMC12136788.
The other results are listed elsewhere or left out.

T1: UNK ZnF1-3 (human, UniProt Q9C0B0 31-174)
T1 sequence: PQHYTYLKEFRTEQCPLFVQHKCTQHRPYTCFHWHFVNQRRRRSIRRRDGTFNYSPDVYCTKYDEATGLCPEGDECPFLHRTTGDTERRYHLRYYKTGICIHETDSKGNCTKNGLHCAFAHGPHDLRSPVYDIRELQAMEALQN

B1: chr17:56167648:56167649:+_ENSG00000264364_ENST00000579991|hu_hu|motif|central (ssRNA)
RNA: GGGAGUUCUACAGUCCGACGAUCGAUAUCCCCAGAGGCUUUUAGCAUAAAAGCCCACUUAGAACUAACUGUGCCCCCGGCCGGCCCAUACACCCUAGAGAUUCCACACUGUCCUGCCCCCUCCCUCCCUUCUACCCCAAACCCCAACAGAGGAUUGAGCAUCA
B2: chr13:100193941:100193942:-_ENSMUSG00000052727_ENSMUST00000064762|mus_hu|motif|central (ssRNA)
RNA: GGGAGUUCUACAGUCCGACGAUCAUUUUCUCUAAACUCUACAUGAACCGUAGGAGUUGAGAAUUCAUUUGUUUUCAAUGUACGGUUUCUUUUAUUUUUUUUUUCCAGAAAAGAAAAUCCCAAAGCAAAUUUGUGCUAGGGUUCCAACAGAGGAUUGAGCAUCA
B3: chr10:24872911:24872912:-_ENSG00000107863_ENST00000396432|hu_hu|motif|central (ssRNA)
RNA: GGGAGUUCUACAGUCCGACGAUCUAAUGAUAUCUGUUACCAAUAAAACGCAUUCGUUUAUUCAAUGUAAGUAAGUUAUCGGAUUUUAACAAUAUGGCACCCUAAAAACCAACUGUAUUUUUAUGAUGAGGCACUUUUGUUAGUCAACAGAGGAUUGAGCAUCA
B4: chr3:47719781:47719782:-_ENSG00000173473_ENST00000254480|hu_hu|FALSE|FALSE (ssRNA)
RNA: GGGAGUUCUACAGUCCGACGAUCAUGGACCCUCAUCACAGCACACACAUCUCCAGUCAAGUUCCUCCGACAAGCAGUGCUAGUUAAAUACUCUUGGGGGUUUAGACGAUACGUGUCAAUCAUAAAAUUUCGAUAUGCCAAGUACAACAGAGGAUUGAGCAUCA
B5: chr4:57314706:57314707:+_ENSG00000128050_ENST00000264221|hu_mus|motif|central (ssRNA)
RNA: GGGAGUUCUACAGUCCGACGAUCCAGAAUUUCAAAAAUAGCUUGUGUGGCAUGACUCAUGAUGUCCACUUCAGUCUGCCCGGUAACAAGGCCAGCAAAACAGAAUUUUGCAGCAAUGAGUUGCUCCUCAGACCACUGUGGAUCCAACAGAGGAUUGAGCAUCA
B6: chr14:89307221:89307222:+_ENSG00000165533_ENST00000346301|hu_mus|hu_hu_hu_mus_False|78_98 (ssRNA)
RNA: GGGAGUUCUACAGUCCGACGAUCUCCUGUUUGGUUAGUUCCAGGGAGCUUCAAAGACGUUCCAGGGCGUGGGACCUGAGCAAUAGCAUUUUCAUCCAGGAUCAUUUCAGCAAUUCCUUCCUGGUCCACAUCAAUUUCAUCUAUCAACAGAGGAUUGAGCAUCA
B7: 35549997_35550542_3344_CDS_ENSMUSG00000041408_ENSMUST00000048263|mouse|control|control (ssRNA)
RNA: GGGAGUUCUACAGUCCGACGAUCAGGUAGGUACUUUGGAACCUGAAGAACACAGUUCAUCGCUGUGCCUAUGAGUCCUUCUUGUUCUCCUGUCUUUGUGCUGCCCCACUCAUUAUCAUUAGUUAAAUUGAGCAAUACUCCAAUCAACAGAGGAUUGAGCAUCA
B8: chr7:883111:883112:+_ENSG00000164828_ENST00000456758|hu_hu|FALSE|FALSE (ssRNA)
RNA: GGGAGUUCUACAGUCCGACGAUCAGACGCACCGCAUUUUUGAUUCCUGUCCCUAGAAUAAACUCUCGACACGGGCCCGGGGGCCGCGGGGUGCGCCGUGAGCACGUCCUUGCGCUCGGACAGCAUGCUGCAGUUGCUGCAGGACAACAGAGGAUUGAGCAUCA
B9: chr4:77932910:77932911:+_ENSG00000138758_ENST00000541121|hu_mus|motif|central (ssRNA)
RNA: GGGAGUUCUACAGUCCGACGAUCUUUAAUUUUCAAUUCUUCUUGCAAGUAGGCCUCAAACUGGGCGUCAAUGUAUUCCACGGUAGGCUUAUAGCUGUCAUCUUUAUUAAUCUGGUCUCCAAAUCCCACUGUGUCAACGAUUGUCAACAGAGGAUUGAGCAUCA
B10: 110476715_110494910_6061_CDS_ENSMUSG00000044791_ENSMUST00000153838|mouse|control|control (ssRNA)
RNA: GGGAGUUCUACAGUCCGACGAUCUUCAGCUACUGUGCUCUCCUUUUCAGUUUGACUUUUCUUUGGAAUCCGAUACACCUCCUUUAGAUCUUUCCAACUGUCUAGUAACUUGGUAGCCAAAUCACUUAUAUCCACUGUUUUAUCCAACAGAGGAUUGAGCAUCA
B11: chr15:96521860:96521861:-_ENSMUSG00000022462_ENSMUST00000023099|mus_mus|FALSE|FALSE (ssRNA)
RNA: GGGAGUUCUACAGUCCGACGAUCGAACUCUUUUGUGGGACACAGUAAGUGAGUGACGGAACUCCGGAUAGGGAAAAUAACUACUGGGACCGUGAGGGUGACAGCCACCAGCACAGCCAAUCGGACAACAAGGAGAAGAAUGUCCAACAGAGGAUUGAGCAUCA
B12: chr2:84898283:84898284:+_ENSMUSG00000033955_ENSMUST00000148682|mus_mus|FALSE|FALSE (ssRNA)
RNA: GGGAGUUCUACAGUCCGACGAUCUUGAGGUGACCCAGGUCUUGGAAACGUCGGUAGGUGCUUCAGAGCAAGCCAGUUUAGCUAGGUCCCCAUUCAUUGCCGGGCUGGAAGUGAGGUUCCUCUCCUCAGGAGUCUUGCUAUGCUCAACAGAGGAUUGAGCAUCA
B13: chr17:57752078:57752079:+_ENSG00000141367_ENST00000269122|hu_hu|motif|central (ssRNA)
RNA: GGGAGUUCUACAGUCCGACGAUCAAUCAAGUUUUUUAUGACAUCUUCAGAACAGUCAACAUCAAGUAAUCCUCCAAUAACGGCAGGAAGUCGACUUGGAUUCACCUUCUGUACAUAUAUCUCUAUAUACUUUUGAAGAUUAUUCAACAGAGGAUUGAGCAUCA
B14: chr7:141445308:141445309:+_ENSG00000106028_ENST00000265304|hu_hu|hu_hu_hu_mus_False|28_68 (ssRNA)
RNA: GGGAGUUCUACAGUCCGACGAUCUAUGAUUGUUGUUGCUUGCCGCCUCACAUUGUUUUUAUCCAUGUAUUCACCAUAGUCCACUUUCCCUUCCACAAAUAUACGAGACCCCUUUUUCACAUACUGAUAUGCCACAUCUCUGAGCAACAGAGGAUUGAGCAUCA
B15: chr15:98867917:98867918:+_ENSMUSG00000043091_ENSMUST00000058914|mus_mus|FALSE|FALSE (ssRNA)
RNA: GGGAGUUCUACAGUCCGACGAUCAGGGUCACAUUUCACCAUCUGGUUGGCUGGCUCAAAGCAGGCAUUGGUGAUCUCUGCUACUGUAAGCUGCUCAUGGUAGGCUUUCUCAGCAGAGAUGACAGGGGCAUAAGUGGCCAGAGGCAACAGAGGAUUGAGCAUCA
B16: chr9:95013113:95013114:-_ENSG00000196305_ENST00000443024|hu_hu|hu_hu_hu_mus_False|68_108 (ssRNA)
RNA: GGGAGUUCUACAGUCCGACGAUCCUCAGUGAGAAAAGGCGUGUAAGGGGCCAUCAGUCUGCACAGAGAAAGCAGAACACUGAACAGUGUCUCCAGAGCCAUGACACAGUCUUCCACCCCACUCUCACCCUUUAACCUCCUCCUCAACAGAGGAUUGAGCAUCA
B17: chr3:176740097:176740098:-_ENSG00000177565_ENST00000430069|hu_hu|motif|central (ssRNA)
RNA: GGGAGUUCUACAGUCCGACGAUCUGUUUUUUACACCACAAAAGGAGGCACUUUCAGUAUCUGUAAAAGGUAUUUAAUCCGGAAACAUACUUACCUAGAGAAUAAUUAAAACAGAAUUCAAUACAAUCUAGUAUCUAUUAGGAACAACAGAGGAUUGAGCAUCA
B18: chr20:46266449:46266450:+_ENSG00000124151_ENST00000372004|hu_mus|FALSE|FALSE (ssRNA)
RNA: GGGAGUUCUACAGUCCGACGAUCCAUCUGCUGUUUGGCCCCUGGGUGACCGCCAUUUGUAGGAUUGUUGUAGAAGUCAGAACUGGUCAAAUCUCCAAGAAUGGCAUCUAGAUUAUCCAGGUCUCCCGAUACCUCCUCGUUCGUCAACAGAGGAUUGAGCAUCA
B19: chr7:140404665:140404666:+_ENSG00000090266_ENST00000247866|hu_hu|hu_hu_hu_mus_False|38_38 (ssRNA)
RNA: GGGAGUUCUACAGUCCGACGAUCUGCUCCUACUCGUCCAGAGAGUUUACAGUGUCAGUCCUCGUCAUCAGGAGGGAUUCCCAGUUCUUCAUCUGUCCACUGGGAAGGAUCUGGAUAUGAAAAGUGACCCAGCACAGCAUCCGACAACAGAGGAUUGAGCAUCA
B20: chr6:30690706:30690707:+_ENSG00000196230_ENST00000327892|hu_mus|FALSE|FALSE (ssRNA)
RNA: GGGAGUUCUACAGUCCGACGAUCUGAGCGAACGGAGUCCAUAGUCCCAGGUUCUAGAUCCACCAAGAUAGCUCGAGGGACAUACUUGCCACCUGUGGCUUCAUUAUAGUACACAGAGAUUCGGUCCAGCUGCAGGUCGCUGUCCAACAGAGGAUUGAGCAUCA
B21: 64651600_64654746_742_3pUTR_ENSMUSG00000029174_ENSMUST00000119756|mouse|control|control (ssRNA)
RNA: GGGAGUUCUACAGUCCGACGAUCUCGGCAGAUGAAUCCAAAGUGGUCCACAUGUCUGAUGCCCUGAGAGCAAAAGGAUAUCUCCUUAAAAUUUUUCUCCAGUGCAAUCUUUUUGGUGUCAGGACUGAUGAGGUAAACUUCAGACAACAGAGGAUUGAGCAUCA
B22: chr8:104447970:104447971:+_ENSG00000164934_ENST00000297579|hu_hu|hu_hu_hu_mus_False|78_78 (ssRNA)
RNA: GGGAGUUCUACAGUCCGACGAUCAUACACUUCCCUGCUUCGGCUCUUGUCCACAGGAAAGAUUCGAAUAGACUUAUCAAAGCUGGCAGACACAAAUUCCUUCCCAGUGGGAGAGUAGUCCACAUCAAGUACUGCAGACACGUGCAACAGAGGAUUGAGCAUCA

biological target: T1, UNK ZnF1-3; assay: nsRBNS (natural sequence RNA bind-n-seq); RBNS binding buffer (assumed for nsRBNS): 25 mM Tris pH 7.5, 150 mM KCl, 3 mM MgCl2, 0.01% Triton X-100, 500 ug/ml BSA, 20 U/ml SUPERase-In, 4 C; UNK is unkempt and MSI1 is Musashi-1; names of the RNAs are library labels; protein concentration not given here; high values mean tight binding

Row | Binder | binding signal
1 | B1 | 1.4 enrichment R
2 | B2 | 0.605 enrichment R
3 | B3 | 0.604 enrichment R
4 | B4 | 1.89 enrichment R
5 | B5 | 0.96 enrichment R
6 | B6 | 0.919 enrichment R
7 | B7 | 0.816 enrichment R
8 | B8 | 0.973 enrichment R
9 | B9 | 0.623 enrichment R
10 | B10 | 0.493 enrichment R
11 | B11 | 1.5 enrichment R
12 | B12 | 0.883 enrichment R
13 | B13 | 0.737 enrichment R
14 | B14 | 0.748 enrichment R
15 | B15 | 1.08 enrichment R
16 | B16 | 1.61 enrichment R
17 | B17 | 0.663 enrichment R
18 | B18 | 1.04 enrichment R
19 | B19 | 1.49 enrichment R
20 | B20 | 1 enrichment R
21 | B21 | 0.918 enrichment R
22 | B22 | 1.01 enrichment R
